The record followed here is paper PMC6212790.

The other results are listed elsewhere or left out. At the low end of the ranking, values are background and their order means little.

The experiment concerns the target T1, GST-Rok (full length) (UniProt O34857).
T1 sequence: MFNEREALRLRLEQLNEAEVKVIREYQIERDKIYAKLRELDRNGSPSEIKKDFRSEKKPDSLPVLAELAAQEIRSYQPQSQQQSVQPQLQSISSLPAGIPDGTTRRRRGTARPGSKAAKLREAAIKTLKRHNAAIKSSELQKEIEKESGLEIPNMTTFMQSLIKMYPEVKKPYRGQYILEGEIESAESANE
Description: protein binding microarray.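 Also: rank score from −0.5 (least bound) to 0.5 (best bound).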 As to conditions: Rok is a gene silencer of Bacillus subtilis; high values mean tight binding; most listed sequences are background and not binding sites; double strand, one strand shown.
Sequence AGCTTCAA gave a binding signal of -0.0974 E-score.
The sequence CAGGGGCG came in with a binding signal of -0.326 E-score.
As to AACGGGCT, the binding signal was -0.12 E-score.
The sequence CGCCCGCA registered a binding signal of -0.278 E-score.
With AACGTTCT the figure was 0.178 E-score; with CCCAGTTA, -0.191 E-score.
Under ATTCCGGG stands -0.12 E-score.
In turn, ACTATATC returned a binding signal of 0.331 E-score.
Under ATGGAATA stands 0.178 E-score; under AAAGTTCC, 0.0577 E-score; under ACGGCATC, -0.114 E-score.
For the sequence CGTACGGC, the binding signal was -0.00666 E-score.
Under GGGATCAC stands -0.332 E-score; under GTACTCAC, -0.12 E-score; under ACGGCTCA, -0.117 E-score.
Sequence AAGACGCG yielded a binding signal of -0.209 E-score.
With CGTAGGAC, the binding signal was -0.151 E-score.
With AGACAAAC the figure was -0.000255 E-score.
Sequence AGTCGCCA registered a binding signal of -0.31 E-score.
CGTTGTTC gave a binding signal of 0.119 E-score.
Under AAGTGCAC stands 0.0133 E-score; under AAAAATCT, 0.00788 E-score; under ATAACTTA, 0.265 E-score.
Regarding GCCTCGAC, the binding signal is -0.0833 E-score.
In turn, ACGTTGCA registered a binding signal of 0.0396 E-score.
Under GGGAGAAC stands -0.179 E-score.
Sequence AGCTTATC registered a binding signal of 0.0235 E-score.
CTACAGCC yielded a binding signal of 0.168 E-score.
ATACAAAG: the binding signal was 0.29 E-score.
The sequence GCACTGCC came in with a binding signal of -0.278 E-score.
Consider AGAGCGCA, for which the binding signal is -0.186 E-score.
With CTTTGCAC the figure was 0.0441 E-score; with ACAGAGAA, 0.0819 E-score.
CTGTTGTC gave a binding signal of -0.0202 E-score.
For CTTGGTCC, the binding signal was -0.205 E-score.
Under ACCCGCTC stands -0.107 E-score.
With GGCGAACA the figure was -0.132 E-score.
Turning to ACATCACT, the binding signal came to 0.101 E-score.
The sequence ATGTAACA showed a binding signal of 0.161 E-score.
Turning to TCCCTCGA, the binding signal was -0.117 E-score.
Under AGGCATAT stands 0.171 E-score; under CTCAATCC, -0.117 E-score; under GAGGGTGC, -0.162 E-score.
Sequence ATTTAGGG registered a binding signal of 0.000918 E-score.
With CAAGCATC, the binding signal was determined as 0.00574 E-score.
Under CTGTGTCC stands -0.0853 E-score; under TAATCGCA, 0.0752 E-score; under ACATACGA, 0.126 E-score.
Sequence ATGTATTC yielded a binding signal of 0.147 E-score.
Sequence GTATTGTA gave a binding signal of 0.238 E-score.
On to AAGGACCC, for which the binding signal was -0.317 E-score.
With AAAGGGCT the figure was -0.285 E-score; with AGAGCCAC, -0.225 E-score.
With CGAGGTTA the figure was 0.0111 E-score; with AGGGTCTC, -0.367 E-score; with ATGTCCCG, -0.167 E-score.
With ACCCCTCT the figure was -0.302 E-score; with CACGCATC, 0.0339 E-score.
As to AGCTACCT, the binding signal was 0.164 E-score.
As for CTACGAAG, the binding signal worked out at 0.0895 E-score.
AAATTATC: the binding signal stood at 0.319 E-score.
With ATGATTTA the figure was 0.0907 E-score.
With ACCGAAAA the figure was 0.241 E-score; with ATAGAGTG, 0.00769 E-score; with CCTGCAAC, -0.0674 E-score.
In the case of CATCGCCG, the binding signal was -0.247 E-score.
Sequence AACTAATA displayed a binding signal of 0.357 E-score.
Consider CGATGGAA, for which the binding signal came to 0.0214 E-score.
Under TCCGGGCA stands -0.232 E-score.
With AAACCACA the figure was 0.04 E-score; with ACTTAGAG, 0.0709 E-score.
ATAATCGA registered a binding signal of 0.196 E-score.
With ATAGACAA the figure was -0.00553 E-score; with AATGTGGA, 0.0587 E-score; with ACAGACGA, -0.048 E-score.
With GATATGCC the figure was -0.104 E-score; with AGAAATTC, 0.228 E-score; with ATTATCGG, 0.219 E-score.
For the sequence AACTGAAG, the binding signal is -0.0822 E-score.
Take ACATTAAG: the binding signal was 0.141 E-score.
The sequence CTACATAG returned a binding signal of 0.153 E-score.
Under TGATGCAA stands -0.0283 E-score; under CCGGGCTC, -0.338 E-score; under CGGATTCC, -0.313 E-score.
CTTCTCCA returned a binding signal of 0.0579 E-score.
With AACGACTC the figure was -0.0273 E-score; with ACCTTGAG, -0.11 E-score.
Under AGGGTTGC stands -0.108 E-score.
Take GGCCCACC: the binding signal is -0.424 E-score.
Consider GATAACCC, for which the binding signal was -0.126 E-score.
With ATGTAATG the figure was 0.228 E-score; with AAGTCTAT, 0.021 E-score; with GACGAACC, -0.176 E-score.
Turning to GCCCCGGC, the binding signal is -0.295 E-score.
Under CTGCACAG stands 0.0169 E-score; under GACACATA, 0.123 E-score; under AAGCGGTG, -0.18 E-score.
The sequence CCATGCCG yielded a binding signal of -0.276 E-score.
With CCCAGAGC the figure was -0.345 E-score; with GACCGGTA, 0.134 E-score; with AGGTTGGA, -0.206 E-score.
On to ACCGTCGG, for which the binding signal was -0.145 E-score.
AGACACAT displayed a binding signal of 0.156 E-score.
Under GACTTTGC stands -0.0328 E-score; under GTATGGCA, 0.00824 E-score; under CTGACCTC, -0.257 E-score.
Under CAACTTAA stands -0.00322 E-score.
With AGGTAGGA, the binding signal was 0.0438 E-score.
In turn, CTCTTCGA came in with a binding signal of -0.23 E-score.
For AGACAGTA, the binding signal came to 0.0571 E-score.
With TCGATCAA the figure was 0.12 E-score.
Regarding TCAACGGA, the binding signal was -0.0288 E-score.
Under AATTAGTC stands 0.257 E-score.
With ATCCTAAT, the binding signal stood at 0.0786 E-score.
With AGAACTAG the figure was 0.298 E-score.
With CCCCACTC the figure was -0.373 E-score.
Under GCAACACA stands -0.00483 E-score; under CGATCTTC, -0.0351 E-score; under GAACGACC, -0.0957 E-score.
The sequence CCCCTGCG displayed a binding signal of -0.249 E-score.
With ATGTTACA the figure was 0.229 E-score.
In the case of ATAGGATC, the binding signal was determined as 0.213 E-score.
With GCCCATAC the figure was -0.173 E-score; with AGCGTCAC, -0.1 E-score.
For AAATACTG, the binding signal came to 0.327 E-score.
With ATAGGCAC the figure was 0.12 E-score; with CTCTGTTC, 0.0552 E-score.
ACGAAACT registered a binding signal of 0.337 E-score.
As for AGGCTATG, the binding signal is -0.338 E-score.
With AGCACCCA the figure was -0.0379 E-score.
Sequence AGCGCGCG had a binding signal of 0.123 E-score.
In turn, CTCTGGCC came in with a binding signal of -0.235 E-score.
GACTGATA gave a binding signal of 0.238 E-score.
The sequence GGACCATA had a binding signal of 0.0127 E-score.
As for TCGCGAAA, the binding signal worked out at 0.165 E-score.
Consider GCCGCCCC, for which the binding signal was -0.466 E-score.
For CAAAAGGC, the binding signal was -0.0979 E-score.
With AGCCCAGG the figure was -0.222 E-score; with ACCACTCT, 0.00781 E-score; with GCATCCCA, -0.196 E-score.
With GGCGCTAA the figure was -0.0299 E-score; with GATGTCGC, -0.226 E-score.
With GCCAAGGC the figure was -0.306 E-score; with ATTGTGAC, 0.0441 E-score.
CATAAACG gave a binding signal of 0.0452 E-score.
Under ACCTCTAC stands 0.205 E-score; under CCTATCAA, 0.161 E-score; under ACAAATAA, 0.333 E-score.
With AAGGAAAA, the binding signal was -0.0492 E-score.
With CCCACTAA the figure was -0.00169 E-score; with GCTATGCA, 0.0574 E-score.
With ATGTCTAC the figure was 0.0623 E-score.
With CCCGCCAG the figure was -0.328 E-score; with CATATCTC, 0.106 E-score; with CGTGGCAC, -0.367 E-score.
In turn, CTACTCCA showed a binding signal of 0.154 E-score.
Under GGGTCAAC stands -0.212 E-score.
Under CGACGAGC stands -0.0768 E-score; under AAGAGCTT, -0.0281 E-score; under AGGTATAT, 0.258 E-score.
ATCAGAAC came in with a binding signal of 0.173 E-score.
Under CACCATGC stands -0.142 E-score.
Under GGGAGAAA stands -0.11 E-score; under GCGCTCGA, -0.175 E-score; under CTCGGGCC, -0.279 E-score.
With GACCAGCA the figure was -0.271 E-score.
TAGGGCCA: the binding signal was -0.106 E-score.
Take CATCACCC: the binding signal was -0.208 E-score.
With ATGGAACG the figure was -0.0345 E-score.
With AAAATCTA the figure was 0.244 E-score; with AGTCAGGA, -0.131 E-score; with AGATATCG, 0.218 E-score.
